PubChem BioAssay AID1240 (Sanford-Burnham Center for Chemical Genomics, 2008)
About 800 (1.6%) of roughly 50,000 compounds showed an effect of 50% or more. The list shows a part of the results.

Target: Bcl-2-like protein 10 (Homo sapiens) (UniProt Q9HD36)
Assay: Phenotype converters, Bcl-B/TR3 peptide binding displacement, primary biochemical FP (AID 1240);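 note: 0% = Bcl-B with tracer peptide and DMSO and 100% = tracer peptide lacking Bcl-B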
Conditions: GST-Bcl-B / FITC-TR3 peptide fluorescence polarization; stronger effect = higher value; compound at 3.75 mg/L

UniProt Q9HD36, sequence (Q9HD36 whole entry, looked up): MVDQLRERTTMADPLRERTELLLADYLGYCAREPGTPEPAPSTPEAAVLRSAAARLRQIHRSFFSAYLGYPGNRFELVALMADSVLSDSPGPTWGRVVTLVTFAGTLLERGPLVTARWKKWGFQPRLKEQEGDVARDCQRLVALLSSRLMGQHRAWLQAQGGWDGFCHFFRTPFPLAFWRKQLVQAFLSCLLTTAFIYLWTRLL

Compound	displacement
O=c1oc2cc(OCc3c(F)cccc3Cl)ccc2c2ccccc12	10.5%
O=C(Nc1nc(-c2ccc(F)cc2)cs1)c1cccs1	-0.9%
CC(/C=C1\SC(=O)N(c2ccc(O)cc2)C1=O)=C\c1ccccc1	7.8%
Cc1ccc(OCc2nnc(NC(=O)Nc3ccc(Cl)cc3)s2)c(C)c1	12.4%
CC(C)Oc1ccccc1NC(=O)c1ccccc1SCc1ccc(F)cc1	-13.8%
Cc1ccc(-c2cc(C(=O)N/N=C/c3cccc([N+](=O)[O-])c3)[nH]n2)cc1	-3.3%
NC(=O)c1ccc(NC(=O)c2cccc(Cl)c2)cc1	0.1%
COC(=O)c1ccccc1-c1ccc(/C=C2/C(=O)N(c3ccccc3)N=C2C)o1	3%
N#C/C(=C/c1ccc(OCC(=O)O)cc1)C(=O)Nc1cccc(Br)c1	-8.9%
Cc1ccc(N2CC(C(=O)OCC(=O)c3ccc(Br)cc3)CC2=O)c(C)c1 (centres undefined)	12.7%
Cc1ccc(/C=C(\C#N)c2nc(-c3cccc(Br)c3)cs2)o1	164%
Cc1cccc(NC(=O)c2c(NC(=O)Cc3ccccc3)sc3c2CCC3)c1	3.6%
CCOC(=O)c1ccc2[nH]c3c(c2c1)CCCC3O (centres undefined)	-2.8%
COc1ccc(N2C(=O)CC(SC(=NCc3ccc(Cl)cc3)Nc3ccccc3)C2=O)cc1 (centres undefined)	7.2%
CCOc1ccc(S(=O)(=O)Nc2cccnc2)c2ccccc12	12.3%
O=C(COC(=O)CN1C(=O)c2ccccc2C1=O)Nc1cccc2ccccc12	-8.1%
Cc1ccc(/C=N/N=C2\NC(=O)C(C)S2)cc1 (centres undefined)	4.7%
S=C(c1ccccc1)N1CCN(c2cccc(Cl)c2)CC1	10.5%
CCN(CC)S(=O)(=O)c1ccc(N)cc1	-2.3%
COc1ccc(CN2CCN(S(=O)(=O)c3ccc(C)cc3)CC2)cc1Br	12.8%
COc1cc(OC)c(NC(=O)COc2ccc(F)cc2)cc1Cl	4.7%
O=C(Nc1ccc(Cl)c(Cl)c1)C1C2CCC3C(CCC21)C3(Cl)Cl (centres undefined)	10.2%
CS(=O)(=O)N1CCN(C2CCN(Cc3ccccc3)CC2)CC1	-10.2%

Compound	displacement
CCCSc1nnc(NC(=O)Nc2ccc(Cl)cc2)s1	8.2%
O=C(CSCc1cccc(Cl)c1)N/N=C/c1ccc(OCC(=O)N2CCCCC2)cc1	-5%
Cc1ccc(Cl)cc1NC(=O)c1ccccc1C(F)(F)F	9.3%
COc1ccc(NC(=O)C(=O)NCCN2CCN(S(=O)(=O)c3ccc4ccccc4c3)CC2)cc1	10.6%
CCOC(=O)COc1ccc(/C=N/N(C)c2ccccc2)cc1OC	1.2%
O=C(Cc1ccc(Cl)cc1)N1CCN(c2ccccn2)CC1	2.5%
O=C(NCC1(c2ccccc2)CCOCC1)c1ccccc1C(=O)c1ccccc1	0.5%
COc1ccc(C(=O)Oc2ccc(Cl)cc2)cc1S(=O)(=O)N1CCOCC1	-17.2%
Cc1cc(C=C2C(=O)NC(=O)NC2=O)c(C)n1-c1ccc(F)cc1	4.7%
O=c1c([N+](=O)[O-])c(N2CCN(Cc3ccccc3)CC2)c2ccccc2n1-c1ccccc1	-10.9%
Cc1ccc(-c2cc(C(=O)N/N=C/C=C/c3ccccc3)[nH]n2)cc1	-8.8%
CCOC(=O)C(CCOCCOc1cc(C)cc(C)c1C)C(=O)OCC	-6.3%
COc1cccc(C2C3=C(NCCN=C3c3ccccc3)C(=O)N2c2ccccc2)c1 (centres undefined)	-0.7%
O=C(N/N=C/C(Br)=C/c1ccccc1)c1cc(-c2ccco2)[nH]n1	-3.4%
CCc1ccccc1NC(=O)c1cc2cc(OC)ccc2oc1=O	15.4%
O=C(CC(Nc1cccc([N+](=O)[O-])c1)c1ccc(Cl)cc1)c1ccccc1 (centres undefined)	-0.6%
C(=Nc1ccccc1-c1ccccc1N=Cc1c[nH]c2ccccc12)c1c[nH]c2ccccc12	-11.6%
Nc1nnc(CC(=O)NCc2ccccc2)s1	6.6%
Cc1nc2ncccn2c1-c1csc(Nc2cccc(O)c2)n1	12.8%
O=C(NCCc1c[nH]c2ccccc12)c1cccs1	11.9%
CCCC(=O)Nc1cccc(NC(=O)COc2cc(C)ccc2C(C)C)c1	-2.3%
CCOC(=O)COc1ccc(/C=C2\C(=O)NC(=O)N(c3ccc(OC)cc3)C2=O)cc1OC	0.6%
CCN(CC)c1ccc(NC(=O)CCN2C(=O)c3ccccc3C2=O)cc1	14.3%

Compound	displacement
Cc1ccccc1N(CC(=O)N1CCc2ccccc2C1)S(C)(=O)=O	9.6%
S=C(NCCN1CCCCC1)NCc1ccccc1	3.1%
COC(=O)Cn1c(O)c(N=NC(=O)c2cc(C)[nH]n2)c2ccccc21	-10.9%
Cc1onc(-c2ccccc2Cl)c1C(=O)Nc1ccc(Cl)cc1F	0.4%
O=C1CSC(c2ccc(Cl)cc2)N1 (centres undefined)	4.1%
CC(C)(CN1CCN(CC(C)(C)NS(=O)(=O)c2ccccc2)CC1)NS(=O)(=O)c1ccccc1	10.1%
O=[N+]([O-])c1ccc2nc3c([nH]c4ccccc43)c(Cl)c2c1	-14.8%
COc1ccc(NC(=O)c2cccc(Cl)c2)cc1Cl	9.8%
COc1ccc(COC(=O)N/N=C(\C)CC(=O)Nc2c(C)cc(C)cc2C)cc1	3.8%
O=C(O)c1cc(-c2cccc([N+](=O)[O-])c2)nc2ccccc12	4.8%
CC1(C)CC(=O)C(=Cc2cn(-c3ccccc3)nc2-c2cccc([N+](=O)[O-])c2)C(=O)C1	6.1%
O=C(Nc1ccccc1Oc1ccccc1)C(c1ccccc1)c1ccccc1	11.7%
Cc1ccc(C(=O)Oc2cccc3ccc(C)nc23)cc1	-7%
O=C1C(=Cc2ccc(Oc3ccc(C(F)(F)F)cc3[N+](=O)[O-])c(Cl)c2)C(=O)c2ccccc21	2.4%
CC1=C(C(=O)OCC(F)(F)F)C(c2ccccc2)NC(=O)N1 (centres undefined)	7.2%
CCOC(=O)C(=O)Nc1cccc([N+](=O)[O-])c1C	-1.5%
O=C(Nc1ccc(N2CCOCC2)cc1)c1ccccc1Br	6.6%
COc1ccc(-c2nc3cc(N)ccc3o2)cc1OC	2.7%
O=[N+]([O-])c1cccc(S(=O)(=O)N2CCN(c3ccccc3)CC2)c1	1.8%
Cc1cccc(C2(c3cccc(C)c3)CC2C(=O)Nc2cc([N+](=O)[O-])ccc2O)c1 (centres undefined)	-10.6%
CCOC(=O)c1c(NC(=O)CCCOc2ccccc2)sc2c1CCC2	-3.9%
CCOC(=O)c1c(NC(=O)c2ccccc2[N+](=O)[O-])sc2c1CCC(C)C2 (centres undefined)	-8.6%
OC1(C#Cc2ccccc2)CCN(Cc2ccccc2)CC1	-12%
